# Some of the results follow.
# B1: Tamarinin (protein)
# chain: CDDSARAGNIVVYWGQGGSDNSEGSLKEACKSGHYNMIVLQQLIVYDDGRDPDLNLGAHCSDCTKLEEQIKYCQNKDIKILLQIGQVVPTQEDVKDVTKNLSEYLLKNFFSGKSGPLGEVYLNGIDIASVPEGNNLKFDELVEALNDSSTERRIYLSASPLCVYPDYYLNKAIQTEKLDFLFVQFFYQNPCIYTEGNPENLFEAMKTWTKNVPESMIFMALPATPNLDGYIPPRVLNKEILPAVSEASNFAGVMIFDRYFDRFRKYSSKIK
# Experiments:
# Experiment in all cases: glycan array binding signal (z-score within array); higher = stronger binding
# Conditions in all cases: glycan notation: IUPAC condensed, linker removed
# [1] = molecular target: Gal(b1-3)GlcNAc(b1-2)Man(a1-3)[Gal(b1-3)GlcNAc(b1-2)Man(a1-6)]Man(b1-4)GlcNAc(b1-4)[Fuc(a1-6)]GlcNAc
# In short: (§1)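 From the Consortium for Functional Glycomics database, 3228 arrays were curated, keeping only those whose protein sequence was available. Binding is given as a within-array Z-score averaged across arrays sharing a protein sequence and across linkers. Negative Z-scores can be read as non-binding.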
# [2] = molecular target: Gal(b1-3)GlcNAc(b1-2)Man(a1-3)[GlcNAc(b1-4)][Gal(b1-3)GlcNAc(b1-2)Man(a1-6)]Man(b1-4)GlcNAc(b1-4)GlcNAc
# In short: as §1
# [3] = molecular target: Gal(b1-3)GlcNAc(b1-2)[Gal(b1-3)GlcNAc(b1-6)]Man(a1-6)[Gal(b1-3)GlcNAc(b1-2)Man(a1-3)]Man(b1-4)GlcNAc(b1-4)GlcNAc
# In short: as §1
# [4] = molecular target: Gal(b1-3)GlcNAc(b1-3)Gal(b1-3)GlcNAc
# In short: as §1
# [5] = molecular target: Gal(b1-3)GlcNAc(b1-3)Gal(b1-4)Glc
# In short: as §1
# [6] = molecular target: Gal(b1-3)GlcNAc(b1-3)Gal(b1-4)GlcNAc
# In short: as §1
# [7] = molecular target: Gal(b1-3)GlcNAc(b1-3)Gal(b1-4)GlcNAc(b1-2)Man(a1-3)[Gal(b1-3)GlcNAc(b1-3)Gal(b1-4)GlcNAc(b1-2)Man(a1-6)]Man(b1-4)GlcNAc(b1-4)GlcNAc
# In short: as §1
# [8] = molecular target: Gal(b1-3)GlcNAc(b1-3)Gal(b1-4)GlcNAc(b1-2)[Gal(b1-3)GlcNAc(b1-3)Gal(b1-4)GlcNAc(b1-6)]Man(a1-6)[Gal(b1-3)GlcNAc(b1-3)Gal(b1-4)GlcNAc(b1-2)Man(a1-3)]Man(b1-4)GlcNAc(b1-4)[Fuc(a1-6)]GlcNAc
# In short: as §1
# [9] = molecular target: Gal(b1-3)GlcNAc(b1-3)Gal(b1-4)GlcNAc(b1-3)Gal(b1-4)GlcNAc(b1-2)[Gal(b1-3)GlcNAc(b1-3)Gal(b1-4)GlcNAc(b1-3)Gal(b1-4)GlcNAc(b1-6)]Man(a1-6)[Gal(b1-3)GlcNAc(b1-3)Gal(b1-4)GlcNAc(b1-3)Gal(b1-4)GlcNAc(b1-2)Man(a1-3)]Man(b1-4)GlcNAc(b1-4)[Fuc(a1-6)]GlcNAc
# In short: as §1
# [10] = molecular target: Gal(b1-3)GlcNAc(b1-3)Gal(b1-4)GlcNAc(b1-6)[Gal(b1-3)GlcNAc(b1-3)]Gal(b1-4)Glc
# In short: as §1
# [11] = molecular target: Gal(b1-3)GlcNAc(b1-3)Gal(b1-4)[Fuc(a1-3)]GlcNAc
# In short: as §1
# [12] = molecular target: Gal(b1-3)GlcNAc(b1-3)Gal(b1-4)[Fuc(a1-3)]GlcNAc(b1-6)[Gal(b1-3)GlcNAc(b1-3)]Gal(b1-4)Glc
# In short: as §1
# [13] = molecular target: Gal(b1-3)GlcNAc(b1-3)GalNAc
# In short: as §1
# [14] = molecular target: Gal(b1-3)GlcNAc(b1-6)Gal(b1-4)GlcNAc
# In short: as §1
# [15] = molecular target: Gal(b1-3)GlcNAc(b1-6)GalNAc
# In short: as §1
# [16] = molecular target: Gal(b1-3)GlcNAc(b1-6)[Gal(b1-3)]GalNAc
# In short: as §1
# [17] = molecular target: Gal(b1-3)GlcNAc6S
# In short: as §1
# [18] = molecular target: Gal(b1-3)[Fuc(a1-4)]GlcNAc
# In short: as §1
# [19] = molecular target: Gal(b1-3)[Fuc(a1-4)]GlcNAc(b1-2)Man
# In short: as §1
# [20] = molecular target: Gal(b1-3)[Fuc(a1-4)]GlcNAc(b1-2)Man(a1-3)[Gal(b1-3)[Fuc(a1-4)]GlcNAc(b1-2)Man(a1-6)]Man(b1-4)GlcNAc(b1-4)[Fuc(a1-6)]GlcNAc
# In short: as §1
# [21] = molecular target: Gal(b1-3)[Fuc(a1-4)]GlcNAc(b1-3)Gal(b1-3)[Fuc(a1-4)]GlcNAc
# In short: as §1
# [22] = molecular target: Gal(b1-3)[Fuc(a1-4)]GlcNAc(b1-3)Gal(b1-4)[Fuc(a1-3)]GlcNAc
# In short: as §1
# [23] = molecular target: Gal(b1-3)[Fuc(a1-4)]GlcNAc(b1-6)GalNAc
# In short: as §1
# [24] = molecular target: Gal(b1-3)[GlcNAc(b1-6)]GalNAc
# In short: as §1
# [25] = molecular target: Gal(b1-3)[Neu5Ac(a2-6)]GalNAc
# In short: as §1
# [26] = molecular target: Gal(b1-3)[Neu5Ac(a2-6)]GlcNAc(b1-4)Gal(b1-4)Glc
# In short: as §1
# [27] = molecular target: Gal(b1-3)[Neu5Ac(b2-6)]GalNAc
# In short: as §1
# [28] = molecular target: Gal(b1-4)Gal
# In short: as §1
# [29] = molecular target: Gal(b1-4)GalNAc(a1-3)[Fuc(a1-2)]Gal(b1-4)GlcNAc
# In short: as §1
# [30] = molecular target: Gal(b1-4)GalNAc(b1-3)[Fuc(a1-2)]Gal(b1-4)GlcNAc
# In short: as §1
# [31] = molecular target: Gal(b1-4)Glc
# In short: as §1
# [32] = molecular target: Gal(b1-4)Glc6S
# In short: as §1
# [33] = molecular target: Gal(b1-4)GlcNAc
# In short: as §1
# [34] = molecular target: Gal(b1-4)GlcNAc(a1-6)Gal(b1-4)GlcNAc
# In short: as §1
# [35] = molecular target: Gal(b1-4)GlcNAc(b1-2)Man
# In short: as §1
# [36] = molecular target: Gal(b1-4)GlcNAc(b1-2)Man(a1-3)Man(b1-4)GlcNAc(b1-4)GlcNAc
# In short: as §1
# [37] = molecular target: Gal(b1-4)GlcNAc(b1-2)Man(a1-3)[Gal(b1-4)GlcNAc(b1-2)Man(a1-6)]Man(b1-4)GlcNAc(b1-4)GlcNAc
# In short: as §1
binder,measurement,setting,value
B1,glycan array binding signal (z-score),[1],-0.025
same,glycan array binding signal (z-score),[2],1.66
same,glycan array binding signal (z-score),[3],0.649
same,glycan array binding signal (z-score),[4],-0.135
same,glycan array binding signal (z-score),[5],2.34
same,glycan array binding signal (z-score),[6],-0.389
same,glycan array binding signal (z-score),[7],0.563
same,glycan array binding signal (z-score),[8],-0.078
same,glycan array binding signal (z-score),[9],4.61
same,glycan array binding signal (z-score),[10],-0.383
same,glycan array binding signal (z-score),[11],-0.347
same,glycan array binding signal (z-score),[12],-0.427
same,glycan array binding signal (z-score),[13],-0.079
same,glycan array binding signal (z-score),[14],-0.377
same,glycan array binding signal (z-score),[15],-0.441
same,glycan array binding signal (z-score),[16],1.22
same,glycan array binding signal (z-score),[17],-0.277
same,glycan array binding signal (z-score),[18],-0.206
same,glycan array binding signal (z-score),[19],1.45
same,glycan array binding signal (z-score),[20],3.52
same,glycan array binding signal (z-score),[21],-0.394
same,glycan array binding signal (z-score),[22],-0.077
same,glycan array binding signal (z-score),[23],-0.371
same,glycan array binding signal (z-score),[24],-0.109
same,glycan array binding signal (z-score),[25],-0.292
same,glycan array binding signal (z-score),[26],2.92
same,glycan array binding signal (z-score),[27],-0.455
same,glycan array binding signal (z-score),[28],0.396
same,glycan array binding signal (z-score),[29],-0.488
same,glycan array binding signal (z-score),[30],-0.549
same,glycan array binding signal (z-score),[31],-0.115
same,glycan array binding signal (z-score),[32],-0.251
same,glycan array binding signal (z-score),[33],-0.352
same,glycan array binding signal (z-score),[34],-0.35
same,glycan array binding signal (z-score),[35],1.22
same,glycan array binding signal (z-score),[36],-0.166
same,glycan array binding signal (z-score),[37],-0.431

# Source: the supplement of paper PMC8728848
